Reference: PubChem BioAssay AID504339 (National Center for Advancing Translational Sciences (NCATS), 2011)
Among all 390,000 compounds or so, about 17,000 (4.4%) were called active. The shares of active, inactive and inconclusive entries below differ from those in the screen. Calls follow the shape of the dose curve; as a rule, active = well fitted inhibition curve with a large enough effect; inconclusive = small, poorly fitted or top-dose-only effect; inactive = no such curve, though single readings can be large or run the other way. Where the call is inconclusive, the potency comes from a doubtful curve fit.

Biological target: Lysine-specific demethylase 4A (Homo sapiens) (UniProt O75164)
Test: qHTS Assay for Inhibitors of JMJD2A-Tudor Domain; also: nearly all actives have a fitted effect of over 50% in size
Details: AlphaScreen JMJD2A-Tudor / H3K4me3 peptide binding; series mostly up to 114 µM
Potency is read from the fitted curve at half-maximal effect; tags tell the direction and shape of the fitted curve.

Sequence of UniProt O75164 (O75164 whole entry, looked up, the tested form may be a part): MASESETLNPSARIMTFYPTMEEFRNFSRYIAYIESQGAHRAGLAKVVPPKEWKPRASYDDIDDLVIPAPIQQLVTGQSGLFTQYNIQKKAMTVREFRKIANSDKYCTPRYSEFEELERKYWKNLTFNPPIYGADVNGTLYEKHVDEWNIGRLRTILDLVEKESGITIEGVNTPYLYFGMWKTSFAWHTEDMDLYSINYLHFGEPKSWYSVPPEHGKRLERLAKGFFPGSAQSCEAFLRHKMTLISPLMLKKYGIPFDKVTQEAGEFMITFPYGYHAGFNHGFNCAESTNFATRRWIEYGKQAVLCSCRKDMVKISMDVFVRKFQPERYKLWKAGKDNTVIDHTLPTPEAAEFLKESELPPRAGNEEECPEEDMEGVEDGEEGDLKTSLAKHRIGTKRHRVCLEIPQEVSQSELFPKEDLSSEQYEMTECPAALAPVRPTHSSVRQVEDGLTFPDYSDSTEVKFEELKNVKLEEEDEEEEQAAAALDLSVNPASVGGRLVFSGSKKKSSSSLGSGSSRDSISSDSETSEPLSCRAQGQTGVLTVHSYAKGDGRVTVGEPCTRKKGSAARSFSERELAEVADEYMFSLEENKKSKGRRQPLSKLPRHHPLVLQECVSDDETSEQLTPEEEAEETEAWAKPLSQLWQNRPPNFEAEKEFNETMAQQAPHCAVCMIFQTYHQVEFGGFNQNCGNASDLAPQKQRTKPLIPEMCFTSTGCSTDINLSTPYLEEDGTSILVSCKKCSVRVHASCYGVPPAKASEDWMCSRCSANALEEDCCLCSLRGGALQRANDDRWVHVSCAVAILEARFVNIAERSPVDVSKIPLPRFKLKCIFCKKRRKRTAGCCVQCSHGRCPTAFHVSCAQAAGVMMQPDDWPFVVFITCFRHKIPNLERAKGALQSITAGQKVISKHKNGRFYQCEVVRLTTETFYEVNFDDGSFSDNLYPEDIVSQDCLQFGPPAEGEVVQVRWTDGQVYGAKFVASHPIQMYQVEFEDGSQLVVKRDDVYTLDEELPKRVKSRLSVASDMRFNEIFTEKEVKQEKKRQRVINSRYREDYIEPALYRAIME

SMILES | Potency
O=C1C=CC(=O)N1Cc1ccccc1 | active: 25.1 µM
CCc1ccc(S(=O)(=O)/N=C2\C=C(Nc3cccc(C(=O)O)c3)C(=O)c3ccccc32)cc1 | active: 17.8 µM
COc1ccc(N2C=C3C(=O)C(C)(OC(=O)CCc4ccccc4)C(=O)C=C3C=C2c2ccc(C#N)cc2)cc1 (centres undefined) | inconclusive: 56.2 µM [inhibitor, partial curve, poor fit]
CCCc1c(C(=O)NNc2cccc(Cl)c2)cnn1-c1ccccc1 | inconclusive: 56.2 µM [inhibitor, partial curve]
CCOCCCNS(=O)(=O)c1ccc(-n2cnnn2)c(OC)c1 | inactive
CCOC(=O)Cc1csc(NC(=O)NC2(C(F)(F)F)Oc3cc(Cl)c(Cl)cc3O2)n1 | inconclusive: 25.1 µM [inhibitor, full curve, poor fit]
COc1cc2c(cc1OC)C1c3ccc(OC)c(OC)c3OCC1(O)C2 (centres undefined) | inactive
CC(Sc1nc(N)c2c3c(sc2n1)CSC(C)(C)C3)C(=O)Nc1ccccc1 (centres undefined) | active: 11.2 µM
CCCCn1c(SCC(=O)NCc2ccco2)nc2ccccc2c1=O | inactive
COc1cc2c(cc1OC)C(CC#N)=NC(C)(C)C2 | inactive
CCOC(=O)c1c(NC(=O)CSc2nnc(-c3cccnc3)o2)sc(C(C)=O)c1C | active: 17.8 µM
C/C=C\C=C/C(=O)Nc1cccc(C2=NOC3(C2)C[C@H](C(N)=O)N(C(=O)Cc2ccc([N+](=O)[O-])cc2)C3)c1 (some centres undefined) | active: 79.4 µM
O=C(c1cc2ncccn2n1)N1CCc2c([nH]c3ccccc23)C1c1ccccc1F (centres undefined) | inconclusive: 39.8 µM [inhibitor, full curve]
COc1cc(/C=N/Nc2nnc3c(n2)[nH]c2ccccc23)ccc1O | inconclusive: 50.1 µM [inhibitor, partial curve]
O=C(Nc1cccc(-c2cn3ccccc3n2)c1)c1cc2ccccc2oc1=O | inconclusive: 89.1 µM [inhibitor, single point]
Cc1cccc2sc(NC(=O)c3ccc(OCC4CCCO4)cc3)nc12 (centres undefined) | inactive
CCN1C(=O)/C(=C/C=C2\C=CN(CC)c3ccccc32)SC1=S | inconclusive: 2.51 µM [inhibitor, full curve, poor fit]
CCOC(=O)N1CCN(C(=O)CSCC(=O)Nc2nc(-c3ccccc3)cs2)CC1 | inactive
O=C(CCN1C(=O)/C(=C\c2ccccc2Cl)SC1=S)Nc1cccnc1 | inconclusive: 12.6 µM [inhibitor, full curve]
CCN(CCCNC(=O)c1cc2c(Cl)nc3ccccc3c2s1)Cc1ccccc1 | inconclusive: 50.1 µM [inhibitor, partial curve]
Cc1cc(C(=O)Nc2ccc(S(=O)(=O)Nc3nccs3)cc2)c(C)o1 | inconclusive: 100 µM [inhibitor, single point]
CC(C)(C)OC(=O)N1CCCC(C(=O)Nc2cccc(C(=O)N3CCCCC3)c2)C1 (centres undefined) | inconclusive: 89.1 µM [inhibitor, single point]

SMILES | Potency
COc1ccc(OC)c(COC(=O)c2cc([N+](=O)[O-])ccc2N2CCOCC2)c1 | inconclusive: 25.1 µM [inhibitor, full curve]
COc1ccc(CN2CCN(Cc3ccccc3F)CC2)cc1OC | active: 5.62 µM
Cc1nn(C2CCCCC2)c(N)c1-c1ccccc1 | inconclusive: 79.4 µM [inhibitor, single point]
Cc1cc(C)c2nc(-c3cccnc3)cc(C(=O)Nc3ccc(S(=O)(=O)Nc4onc(C)c4C)cc3)c2c1 | inconclusive: 79.4 µM [inhibitor, partial curve]
Cc1ccc(NC(=O)CN(C)S(=O)(=O)c2ccc3[nH]c4c(c3c2)CCCC4)c(Cl)c1 | inconclusive: 12.6 µM [inhibitor, full curve]
Cc1ccc(F)c(Oc2cc(NN3CCCCC3)c([N+](=O)[O-])cc2[N+](=O)[O-])c1 | inconclusive: 14.1 µM [inhibitor, partial curve]
COc1ccc(N2CCN(c3oc(-c4ccc(COc5cccc(C)c5)o4)nc3C#N)CC2)cc1 | inconclusive: 2.82 µM [inhibitor, full curve]
O=c1nc(Nc2ccccc2)sc2ccc([N+](=O)[O-])cc12 | inconclusive: 14.1 µM [inhibitor, partial curve]
COc1ccc(CN(CCN(C)C)Cc2ccccc2)c(OC)c1 | active: 2.51 µM
Cc1nn(-c2ccccc2)c(N)c1N=Nc1ccc(Cl)cc1 | active: 44.7 µM
Cc1ccccc1Cn1cc(S(=O)(=O)c2ccc(F)cc2)c(=O)c2cc3c(cc21)OCO3 | inactive
CCN(CC(=O)Nc1ccc(OC)cc1)CC(=O)Nc1sc2c(c1C(=O)OC)CCCC2 | inconclusive: 56.2 µM [inhibitor, partial curve]
Cc1cc(=O)n(Cc2ccc(Br)cc2F)c2c1c(C)nn2-c1ccccc1 | inactive
Cc1cccc(NNC(=O)C2CCC2)c1 | inactive
CC1(C)Oc2ccc3ccc(=O)oc3c2/C(=C/Nc2cccc(O)c2)C1=O | active: 39.8 µM
CCc1ccc(-c2[nH]nc3nc(-c4cc(OC)ccc4OC)cc(C(=O)O)c23)cc1 | inconclusive: 22.4 µM [inhibitor, partial curve, poor fit]
CC(C)c1ccc(/C=C2\C(=O)N(CCN3CCOCC3)C(=S)N2C)cc1 | inconclusive: 44.7 µM [inhibitor, partial curve]
COc1ccc(OCc2nnc(SCC(=O)NC3CCCCC3)o2)cc1 | inconclusive: 79.4 µM [inhibitor, single point]
Cc1ccc(NC(=O)c2cn(CCC#N)nc2-c2cccs2)c([N+](=O)[O-])c1 | inconclusive: 39.8 µM [inhibitor, single point]
CCc1ccc(C(=O)/C=C/c2ccc([N+](=O)[O-])o2)cc1 | inconclusive: 17.8 µM [inhibitor, full curve]
CC(CNCC1CCCO1)COc1ccccc1 (centres undefined) | inconclusive: 3.55 µM [inhibitor, single point]
Cc1ccc(NC(=O)CSc2nccn2-c2ccccc2)cc1 | inconclusive: 56.2 µM [inhibitor, single point]
